Laboratory results published in the supplement of paper PMC10126150.
Sequences with one replicate were seen in a single cluster, so their values are uncertain.

System: ATP
Assay: switch fluorescence ratio, 500 uM ATP over buffer (Cy3 cluster intensity, sum of 5 cycles each) (fold (ratio)); higher = stronger signal-on switching upon ATP binding; sequences stand for … in TCGTCGGCAGCGTCAGATGTGTATAAGAGACAGTTTTTTTTTTTTTTTTTTTTTTTTT…TC
Settings: aptamer strand: ATP DNA aptamer (quencher-CACCTGGGGGAGTATTGCGGAGGAAGG + anchor), 100 nM annealed; ATP concentration: 500 uM; one replicate
Procedure, shortened: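 After annealing to 100 nM quencher-labelled ATP aptamer, Cy3-labelled switching-strand clusters on a modified Illumina MiSeq flow-cell were imaged in selection buffer. A second image followed after 15 min with 500 uM ATP at 22 °C, and five such buffer/ATP cycles were done, each separated by NaOH stripping and re-annealing. The fluorescence ratio, averaged per switch-domain sequence, is summed target-cycle over summed buffer-cycle Cy3 intensity per cluster, with clusters outside 100-1000 RFU excluded.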
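Also: ATP exposure 15 min at 22 °C before imaging.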

Sequence	switch fluorescence ratio
CTATGACGA	1.04
CTATGACGT	1.01
CTATGCGTCT	0.914
CTATGGAAAG	1.03
CTATGGACCG	0.976
CTATGGACTT	1.06
CTATGGGGGC	0.982
CTATGTATAA	0.997
CTATGTTAGT	1.04
CTATTAACGT	1.03
CTATTAGTTA	0.981
CTATTCTCAT	0.983
CTATTGATTG	1
CTATTGCCTG	0.942
CTATTTCCGA	1.09
CTATTTTACG	1.03
CTCAAACCGA	1.26
CTCAAGAAAG	0.997
CTCAATTAA	1
CTCACAGACA	1.29
CTCACCTTCT	1.5
CTCACGGCAA	6.08
CTCACTCGAC	1.08
CTCACTGCTA	1.33
CTCAGAAGTT	0.999
CTCAGGATGA	0.988

Sequence	switch fluorescence ratio
CTCAGGATGG	1.01
CTCAGGTTCA	1.01
CTCAGTCTCT	1
CTCAGTGTCA	1.03
CTCATAGCTG	1.03
CTCATCTTTG	0.993
CTCATGTGTG	1.02
CTCATTCGTA	0.991
CTCATTTGTG	0.968
CTCCACGGCC	1.73
CTCCAGTACG	1.43
CTCCAGTGAA	1.27
CTCCGAGGAG	1.02
CTCCGGAAAA	1.44
CTCCTCAGTA	2.18
CTCCTCCTGA	1.53
CTCCTGAAG	1.02
CTCCTGCCTC	2.71
CTCCTGGTCT	1.07
CTCCTGTTAC	1.09
CTCCTTAAGC	1.45
CTCCTTGCC	1.02
CTCGAACTTA	1.03
CTCGAATGAC	1.14
CTCGAATTTG	0.995
CTCGAATTTT	0.979

Sequence	switch fluorescence ratio
CTCGACAGAG	0.964
CTCGAGAGAC	1.4
CTCGAGTTCG	0.996
CTCGATAAA	0.968
CTCGATAGCC	1.03
CTCGATGACC	0.982
CTCGCACTGG	2.15
CTCGCCAGTC	1.18
CTCGCCGTCG	0.957
CTCGCGTGTA	1.04
CTCGCTAAGT	1.09
CTCGCTATAT	3.22
CTCGGGGAGG	1.03
CTCGTAAACT	1.12
CTCGTACTTC	1.07
CTCGTATATA	1.02
CTCGTGTAAG	1.02
CTCGTTCATA	0.984
CTCGTTGTG	0.975
CTCTAGCATG	1.29
CTCTAGCGAT	3.87
CTCTCATGTT	0.994
CTCTCTCTGC	1.17
CTCTGAAACA	0.937
CTCTGAATTA	1.07
CTCTGGCCCA	0.97

Sequence	switch fluorescence ratio
CTCTGTCTGT	1.15
CTCTGTGTGG	1.02
CTCTTAAAC	1.02
CTCTTAGGGT	1
CTCTTATCTA	0.986
CTCTTGTTT	0.955
CTCTTTCTAA	0.995
CTCTTTTTAT	1.02
CTGAAAGAAC	1.03
CTGAACTAGG	0.961
CTGAAGTACA	1.35
CTGAATATAC	2.88
CTGAATCGGG	1.02
CTGACCATC	1.29
CTGACCGATA	1.25
CTGACCGGAC	2.4
CTGACGGTG	1.05
CTGACTTGT	1.02
CTGAGACTTC	1.01
CTGAGAGGAT	0.983
CTGAGATTGG	1.02
CTGAGCAAA	1.97
CTGAGGCATA	3.12
CTGAGGCGGT	1.42
CTGAGGTATA	0.966
CTGAGTAAAA	1.06

Sequence	switch fluorescence ratio
CTGAGTAGTG	1.02
CTGAGTCATT	1
CTGAGTGGCT	1
CTGATCGTTA	1.08
CTGATGAGAT	1.08
CTGATTGGCG	0.981
CTGCAACTTG	1.17
CTGCAAGTCT	1.16
CTGCAATTAT	4.74
CTGCACAATT	1.15
CTGCAGGTTT	1.16
CTGCCATAAC	2.54
CTGCCGAGGG	0.972
CTGCCGAGGT	0.999
CTGCGATGGG	1.11
CTGCGCAGGG	1.08
CTGCGCCCGT	1.04
CTGCGGTCT	0.972
CTGCGTTAAC	1.41
CTGCGTTCTT	1.03
CTGCGTTTTT	0.987
CTGCTAAAAC	1.38
CTGCTAAACG	1
CTGCTACGAT	1.16
CTGCTATAGC	1.06
CTGCTGA	1.02

Sequence	switch fluorescence ratio
CTGCTGAGTC	1
CTGCTGGGTC	1.02
CTGCTTCGAG	0.996
CTGGACAACA	1.06
CTGGACAGAT	1.02
CTGGACGAGC	1.08
CTGGACTGTT	0.965
CTGGAGCCCC	2.07
CTGGATCTGC	1.09
CTGGATGCCT	0.984
CTGGCAACCC	1.25
CTGGCATCAA	1.04
CTGGGACTC	0.99
CTGGGAGCAG	1.03
CTGGGATGAT	0.974
CTGGGGCCCA	1.01
CTGGGTCCAG	0.964
CTGGTAATGT	1
CTGGTAGAGA	0.998
CTGGTAGGCG	0.934
CTGGTATTGG	1.01
CTGGTGGAGA	0.979
CTGGTTCAAC	0.948
CTGGTTTGGG	0.994
CTGTAACTGC	1.21
CTGTAAGCCT	1.09

Sequence	switch fluorescence ratio
CTGTAAGCTT	1.08
CTGTAGGGGT	0.988
CTGTAGTGTC	1.28
CTGTATAAGC	1.48
CTGTCGAGT	0.992
CTGTGAATGC	1.37
CTGTGACAAC	0.998
CTGTGCGGGC	1.04
CTGTGGGGCT	1.04
CTGTGGGTT	0.998
CTGTGTAATT	1.18
CTGTGTTGGG	1.01
CTGTTAGATG	0.971
CTGTTATAGT	0.983
CTGTTCCGAC	1.42
CTGTTGGCGG	0.965
CTGTTTTTAG	1.02
CTTAAAGTTC	1.02
CTTAAATGCG	1.11
CTTAAGGACT	0.972
CTTAATCGGG	0.956
CTTACCAGAA	1.02
CTTACCGTTT	1.08
CTTACCTATT	1.06
CTTACGAACT	1.29
CTTACGTAAA	1.25

Sequence	switch fluorescence ratio
CTTACTACTC	1.11
CTTACTGGGG	0.992
CTTAGAAAAA	0.998
CTTAGCGCTT	0.961
CTTAGGAGGA	1.05
CTTAGGGAAT	0.959
CTTAGGTACC	1.05
CTTAGTCGGT	1.01
CTTAGTGTG	0.981
CTTAGTTAAT	0.986
CTTAGTTATG	0.99
CTTATAACGT	1.03
CTTATCAATA	1.09
CTTATCCGGT	1.02
CTTATCGCCT	1.07
CTTATCGCG	1.02
CTTATCGGGC	0.929
CTTATGCAAA	1.07
CTTATGCACT	1.02
